Consider 57 compounds from PubChem BioAssay AID463173 (ICCB-Longwood Screening Facility, Harvard Medical School, 2010).

Screen size: about 52,000 compounds; about 1,700 (3.3%) were called active. No stated cut-off is given here; in the data, active means survival mostly below about 52% (no sharp cut-off); inactive means mostly above about 56%. Some of the results follow.

This experiment relates to Wild type. The experiment can be described thus: growth inhibition of S. aureus wild type versus tarO mutant, primary screen, teichoic acid synthesis inhibitors, RN4220, OD600 (AID 463173). The following applies: S. aureus RN4220 wild type/DeltatarO growth, OD600, 18 h, hits give low values, screened at 18.75 µg/mL (by protocol).
Turning to `O=C(O)Cc1sc(Nc2ccccc2)nc1-c1ccccc1`, the survival is inactive: 59%.

As to `CCCn1c(SCC(=O)N2CCCc3ccccc32)nnc1C(C)C`, the survival was inactive: 104%.

In the case of `c1ccc(CN2CCC(N3CCN(C4CCCCC4)CC3)CC2)cc1`, the survival was inactive: 105%. For `COc1ccccc1CCNC(=O)C1CCN(c2nnc(-n3cccc3CNc3ccc(C)cc3)s2)CC1`, the survival is inactive: 86%.

For the compound `COc1ccc(Cl)cc1NC(=O)c1cn(C2CCCCC2)c(=O)c2c1c1ccccc1n2C`, the survival is inactive: 84%.

`N/C(=N\c1nc2ccccc2o1)NC(=O)/C=C/c1ccco1`: the survival was inactive: 122%.

As to `CCOc1ccc(Nc2nc3cc(Cl)c(Cl)cc3nc2-n2nc(C)cc2C)cc1`, the survival is inactive: 88%. For `Cc1c(C(=O)N(Cc2ccc(N(C)C)cc2)CC2CCCO2)oc2ccc(Cl)cc12` (configuration not stated) the value was inactive: 86%; for `COc1ccc(N2CCN(c3csc4ccc(Cl)cc4c3=O)CC2)cc1`, inactive: 73%; for `O=C(O)c1ccc2nc(-c3cc4cccc(O)c4oc3=O)[nH]c2c1`, inactive: 59%. For `Cc1ccc(C)c(S(=O)(=O)c2nnn3c2nc(NC(C)C)c2sccc23)c1` the value was inactive: 69%; for `NS(=O)(=O)c1ccc(NC(=O)CN2C(=O)COc3ccc(Cl)cc32)cc1`, inactive: 84%. For `COc1ccc(CNC(=O)c2cc(-c3ccc(C)cc3)nc3n[nH]c(-c4ccc(Br)cc4)c23)cc1`, the survival is inactive: 64%. For `COc1ccccc1Cn1cc(C(=O)c2ccc(C)cc2)c(=O)c2cc(C)ccc21` the value was inactive: 121%. On to `CCN(c1ccccc1)c1ccc2cc(S(=O)(=O)N3CCCC3)ccc2n1`, for which the survival is inactive: 78%. For the compound `Cc1ccc(-n2nc(CO)c(C(=O)NCCCc3ccccc3)n2)cc1C`, the survival was inactive: 112%. For `CCc1ccccc1Nc1nn2c(=O)c3ccc(C(=O)NCc4ccccc4OC)cc3nc2s1` the value was inactive: 72%; for `CCOC(=O)c1c(C)[nH]c(C)c1S(=O)(=O)N1CCCC(C(=O)Nc2ccc(C)cn2)C1` (configuration not stated), inactive: 76%; for `CCOc1ccc(Nc2ncnc3c2nc2n3CCCC2)cc1`, inactive: 51%. Take `CCOc1ccc(NC(=O)CSc2ccc(-c3sc(-c4ccccc4)nc3C)nn2)cc1`: the survival was inactive: 42%. For `CCOc1ccccc1CNC(=O)c1c(C)oc2ncnc(N3CCOCC3)c12` the value was inactive: 78%; for `NC(=O)CN(c1ccccc1)C1SC(=O)NC1=O` (configuration not stated), inactive: 92%; for `Cc1ccccc1C(=O)NC1(C(F)(F)F)N=C(c2ccccc2)N(C2CCCCC2)C1=O` (configuration not stated), inactive: 75%. For `CCOC(=O)c1oc2ccc(S(=O)(=O)n3nc(-c4cc(OC)c(OC)c(OC)c4)cc3N)cc2c1C` the value was inactive: 98%; for `CCOc1ccc2nc(Cl)c(C3CC(c4ccc(OC)cc4)=NN3S(C)(=O)=O)cc2c1` (configuration not stated), inactive: 132%; for `CCOC(=O)CNC(=O)Nc1cc(C(=O)NCc2ccccc2OC)ccc1N1CCCC1`, inactive: 77%.

Consider `CC(C)C(=O)Nc1ccccc1OCc1cc(=O)n2ccccc2n1`, for which the survival was inactive: 111%. Then `COc1ccc(Cl)cc1NC(=O)C1CCCN(c2ncnc3onc(C)c23)C1` (configuration not stated), with inactive: 128%. As to `N#CCCn1c(=O)[nH]c(=O)n(CCC#N)c1=O`, the survival was inactive: 101%. For `CCC(Oc1ccccc1F)C(=O)N1CCC(c2nc3ccccc3s2)CC1` (configuration not stated) the value was active: -3%; for `CCOc1ccc(NC(=O)C2CCCN(c3ccc(Sc4ccc(C)cc4)nn3)C2)cc1` (configuration not stated), active: 16%. For `COC(=O)C(CCSC)NC(=O)c1cc2c(n(-c3ccc(Cl)cc3)c1=O)CCCC2=O` (configuration not stated) the value was inactive: 72%; for `O=C(NC(=O)c1ccccc1)Nc1ccc(-c2cc(C(F)(F)F)nn2-c2ccccc2)cc1`, inactive: 101%. For `CCCn1c(CNC(=O)c2ccc(F)cc2)nc2ccccc21` the value was inactive: 69%; for `O=C(CCCN1C(=O)C(c2ccccc2)Oc2cccnc21)Nc1ccccc1C(F)(F)F` (configuration not stated), inactive: 113%.

With `Cc1ccc2oc(-c3ccc(C)c(NC(=O)c4ccc(N5CCC(C)CC5)c([N+](=O)[O-])c4)c3)nc2c1`, the survival is inactive: 141%. For `Cc1cccc(NC(=O)c2cc3c(=O)n4cccc(C)c4nc3s2)c1C` the value was inactive: 86%; for `O=c1c2cc3c(cc2n(Cc2ccc(F)cc2)c(=O)n1Cc1nc(-c2ccccc2)no1)OCO3`, inactive: 70%. Then `Cc1cccc(NC(=O)c2ccc3snnc3c2)c1C`, with inactive: 101%; and `CC(C)CN(CCCNC(=O)CN1N=C(c2ccc(Cl)cc2)CCC1=O)CC(C)C`, with inactive: 75%; and `COc1ccc2c(c1)CCc1c(C(=O)Nc3c(C)nn(Cc4ccccc4C)c3C)noc1-2`, with inactive: 26%. Then `Clc1ccc2c(c1)NC(c1ccncc1)=NC(c1cccs1)=N2`, with inactive: 79%. Regarding `COC(=O)c1c(SC)nc2ccccc2c1OCc1ccc(Cl)cc1`, the survival was inactive: 79%. Then `COc1cc(CNC(=O)c2ccc3nc(CCc4ccccc4)oc3c2)cc(OC)c1OC`, with inactive: 66%; and `CCOc1ccccc1NC(=O)C(CC(C)C)NS(=O)(=O)c1ccc2c(c1)oc(=O)n2C` (configuration not stated), with inactive: 141%.

For the compound `CCN1CCN(C(=O)c2cnn(-c3cccc(Cl)c3)c2C2CCN(C(=O)OC(C)(C)C)CC2)CC1`, the survival was inactive: 83%.

`O=C(COCc1cc(-c2ccc3c(c2)OCO3)on1)N1CCN(c2cccc(Cl)c2)CC1`: the survival was inactive: 45%. `CNS(=O)(=O)c1cn(CC(=O)N2CCN(c3cccc(C)c3C)CC2)cc1S(=O)(=O)NC`: the survival was inactive: 88%.

Consider `Cc1ccc(S(=O)(=O)N(Cc2nc(-c3cccc(C)c3)no2)C2CCCCC2)cc1`, for which the survival is inactive: 83%. On to `O=c1cc(-c2ccccc2)nc(SCc2nc(-c3ccc(Cl)cc3)no2)[nH]1`, for which the survival is inactive: 88%. Then `O=C1CC2CCC(CN1)N2CC(=O)Nc1ccc(F)cc1` (configuration not stated), with inactive: 105%; and `COc1ccc2nc(NS(=O)(=O)Cc3ccccc3)sc2c1`, with inactive: 107%. As for `COc1ccc(N2Cc3cccc(C(=O)Nc4cc(C)cc(C)c4)c3C2=O)cc1`, the survival is inactive: 86%.

On to `CSC1=NC2(CCN(C(=O)NC3CCCCC3)CC2)N=C1c1ccc(C)cc1`, for which the survival was inactive: 74%. Then `Cc1cc(F)ccc1NC(=O)CCS(=O)(=O)c1ccc2c(c1)CC(C)N2C(=O)C1CC1` (configuration not stated), with inactive: 71%.

For `O=C(C1COc2ccccc2O1)N1CCN(c2nc3ccc(F)cc3s2)CC1` (configuration not stated), the survival is inactive: 75%.

For the compound `Cc1noc(-c2ccc(-c3noc(-c4cccc(F)c4)n3)cc2)n1`, the survival is inactive: 67%.
